Experimental data from article PMC4336329 (PLoS ONE, 2015).
About 2,200 (0.71%) of roughly 310,000 compounds showed an effect of 50% or more. The effect is printed as a negative number. Some of the results follow.

What follows are compounds tested against human ether-à-go-go-related gene (hERG) potassium channel (human, UniProt Q12809) (assay: primary screen, population patch clamp on CHO cells stably expressing hERG).
Chain of human ether-à-go-go-related gene (hERG) potassium channel (Q12809 whole entry, looked up): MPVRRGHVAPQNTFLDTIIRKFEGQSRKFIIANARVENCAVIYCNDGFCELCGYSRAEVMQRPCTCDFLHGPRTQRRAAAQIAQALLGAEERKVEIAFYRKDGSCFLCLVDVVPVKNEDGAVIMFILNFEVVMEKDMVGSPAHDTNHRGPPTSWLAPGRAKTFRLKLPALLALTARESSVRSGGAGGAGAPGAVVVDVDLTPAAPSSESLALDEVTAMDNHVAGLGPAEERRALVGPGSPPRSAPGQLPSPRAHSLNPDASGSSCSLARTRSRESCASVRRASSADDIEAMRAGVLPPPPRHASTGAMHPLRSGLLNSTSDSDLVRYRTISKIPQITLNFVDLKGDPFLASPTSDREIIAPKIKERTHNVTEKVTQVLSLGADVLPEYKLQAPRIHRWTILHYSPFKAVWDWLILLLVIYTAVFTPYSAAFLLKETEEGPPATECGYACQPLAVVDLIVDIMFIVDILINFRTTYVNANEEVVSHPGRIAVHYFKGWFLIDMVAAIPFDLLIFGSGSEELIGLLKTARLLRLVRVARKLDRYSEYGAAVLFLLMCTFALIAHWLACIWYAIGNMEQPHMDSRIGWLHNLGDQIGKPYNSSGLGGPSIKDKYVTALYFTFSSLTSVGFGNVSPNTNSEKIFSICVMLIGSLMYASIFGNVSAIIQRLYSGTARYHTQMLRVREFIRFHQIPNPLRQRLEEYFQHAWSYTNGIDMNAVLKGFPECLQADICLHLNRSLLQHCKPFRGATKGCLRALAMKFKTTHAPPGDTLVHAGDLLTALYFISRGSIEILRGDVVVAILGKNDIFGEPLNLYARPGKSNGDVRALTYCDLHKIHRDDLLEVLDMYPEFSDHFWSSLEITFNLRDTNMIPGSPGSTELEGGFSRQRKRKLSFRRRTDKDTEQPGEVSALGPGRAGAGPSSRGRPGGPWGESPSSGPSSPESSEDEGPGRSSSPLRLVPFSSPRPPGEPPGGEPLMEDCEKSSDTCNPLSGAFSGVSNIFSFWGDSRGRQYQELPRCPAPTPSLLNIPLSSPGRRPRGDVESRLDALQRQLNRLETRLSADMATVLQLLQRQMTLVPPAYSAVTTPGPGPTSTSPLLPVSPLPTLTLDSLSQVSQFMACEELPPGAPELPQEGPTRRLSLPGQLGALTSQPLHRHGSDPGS

In order of falling “hERG current change (%, negative = inhibition) at 1uM” value:
1. C/C(CC(=O)Nc1ccc(N(C)C)cc1)=N\NC(=O)c1cnccn1  20%
2. CCOc1ccc(CCNC(=O)Cc2ccc(NC3=NC4CS(=O)(=O)CC4S3)cc2)cc1 (stereo not shown)  17.7%
3. Cn1ccc(C(=O)Nc2ccc3c(c2)OCCO3)n1  17.3%
4. O=C(Nc1ccc(N2CCOCC2)c(Cl)c1)c1cccc(-n2cnnc2)c1  16.5%
5. COc1cccc(NC(=S)NCCc2ccccn2)c1  16.4%
6. Cc1cc(C)cc(C(=O)NCCN2CCOCC2)c1  15.8%
7. COc1cccc(C2Nc3ccc4ccccc4c3C3=C2C(=O)CCC3)c1O (stereo not shown)  15.7%
8. Cc1cc(NC(=O)CSc2nnc(-c3c[nH]c4ccccc34)n2-c2ccc(F)cc2)no1  15.6%
9. COc1ccccc1CNC(=O)c1cc2c(s1)CS(=O)(=O)C2  15.3%
10. Cc1c(NC(=O)C2CCCN(S(=O)(=O)c3cnc[nH]3)C2)c(=O)n(-c2ccccc2)n1C (stereo not shown)  14.8%
11. C=CC(=O)NC1CC2CCC1(C)C2(C)C (stereo not shown)  14.4%
12. COCCN1C(=O)C(=O)/C(=C(/O)c2ccc(OC(C)C)cc2)C1c1cccnc1 (stereo not shown)  14.2%
13. Cc1ccc(NC(=O)C2CCN(c3cnccn3)CC2)cc1C  14%
14. Cc1cc(=O)[nH]c(Nc2cccc(Br)c2)n1  13.9%
15. COc1ccc(Oc2ncccc2NC(=O)c2cccc(C)c2C)cc1  13.8%
16. CCOc1ccc(S(=O)(=O)N(C)C)cc1-c1nc2c(C(C)(C)C)nn(C)c2c(=O)[nH]1  13.5%
17. S=C(NCC1CCCO1)Nc1cccc(Cl)c1 (stereo not shown)  13.3%
18. Cc1cc(C(=O)N/N=C/c2c(C)nn(-c3ccccc3)c2C)c(C)o1  12.2%
19. FC(F)(F)c1cccc(CN2CCSCC2)c1  11.9%
20. CCC(CC)c1nnc(NC(=O)c2cc(C(=O)OC)cc([N+](=O)[O-])c2)s1  11.7%
21. CC(=O)NC(C)c1ccc(C(=O)CSc2nnc(C3CC3)n2C2CC2)cc1 (stereo not shown)  11.6%
22. CC(C)(C)OC(=O)CNC(=O)c1[nH]cnc1C(=O)Nc1ccc(CNC(=O)OC(C)(C)C)cc1  11.6%
23. C/C(=N\Nc1nc(C)cc(-c2ccccc2)n1)c1ccc(F)cc1  11.2%
24. O=C(Cc1ccccc1)N1CCC(c2ccccc2)C1 (stereo not shown)  10.5%
25. CC(C)Cc1ccc(S(=O)(=O)NCC2CCCO2)cc1 (stereo not shown)  10.3%
26. CC(=C/c1ccc(C(C)C)cc1)/C=N/NC(=O)Cn1nc(C)cc1C  10.2%
27. COc1ccc(-c2csc(NC(=O)CN3C(=O)C4CC=CCC4C3=O)n2)cc1OC (stereo not shown)  10.2%
28. NC(=O)[C@@H]1CCCN1Cc1nc(-c2cccs2)no1  9.8%
29. CC(C)c1ccc(NC(=O)Cn2ncc3ccccc32)cc1  9.75%
30. COc1ccc(Cl)cc1N/C(N)=N/c1nc(CSc2ccc(C)cc2)cc(=O)[nH]1  9.62%
31. Cn1cccc1C(=O)OCC(=O)N1c2ccccc2NC(=O)C1(C)C  9.18%
32. Nc1ccc(SCCN2C(=O)c3ccccc3C2=O)cc1  8.91%
33. CN(c1ccccc1C(=O)Nc1ccc(CC#N)cc1)S(=O)(=O)c1ccccc1  8.83%
34. CCC(Oc1ccccc1C)C(=O)Nc1ccc(S(=O)(=O)Nc2cc(C)on2)cc1 (stereo not shown)  8.78%
35. CCOC(=O)c1c(-c2ccco2)csc1NC(=O)CSc1nnc(N)s1  8.78%
36. CS/C(N)=N/N=C/c1cc(C)ccc1O  8.38%
37. O=C(N/N=C/c1ccco1)C1(O)c2ccccc2-c2ccccc21  8.19%
38. COc1ccc(-c2nc3cc(C)ccn3c2NC(=O)c2c(F)cccc2Cl)cc1  8.14%
39. CC(Sc1nnc(C(F)(F)F)n1C)C(=O)Nc1ccc(S(N)(=O)=O)cc1 (stereo not shown)  8.05%
40. CCCCC(=O)N1CCCC(C)C1 (stereo not shown)  7.91%
41. Cc1nc2c(C(=O)NCc3cccs3)cnn2c(C)c1Cc1ccc(F)cc1  7.78%
42. Cc1cccc(C(=O)NC(C)C(c2cccs2)N2CCOCC2)c1 (stereo not shown)  7.59%
43. C=CCn1c(SCC(=O)Nc2ccc3c(c2)OCO3)nc2ccccc2c1=O  7.34%
44. O=C(NCc1ccc(C(F)(F)F)cc1)c1ccc2c(c1)S(=O)(=O)c1ccccc1C2=O  7.23%
45. CCC(C)(C)C(=O)Nc1nnc(CCc2ccccc2)s1  6.76%
46. CCOc1ccc(-n2cc(C(=O)Nc3cccc(OC)c3)c3cc(OC)c(OC)cc3c2=O)cc1  6.12%
47. COC(=O)c1ccc(-c2sc3nc(N4CCOCC4)c4c(c3c2N)CCCC4)o1  6.06%
48. CCS(=O)(=O)N1Cc2ccccc2CC1C(=O)Nc1nnc(SCc2ccc(C#N)cc2)s1 (stereo not shown)  5.91%
49. COc1cc(C(=O)Oc2ccccc2/C=N/NC(=O)c2ccc(Cl)cc2Cl)cc(OC)c1OC  5.63%
50. Cc1cc(NC(=O)c2ccc(Br)cc2)nc(C)n1  5.36%
51. CC1CCCCN1S(=O)(=O)c1ccc(S(=O)(=O)N2CCN(c3ccccc3)CC2)cc1 (stereo not shown)  5.25%
52. CCN(CC(=O)Nc1ccc(NC(C)=O)cc1)C(=O)CSC(c1ccccc1)c1ccccc1  5.05%
53. CC(C)C(OC(=O)c1ccco1)C(=O)NC1CCCCC1 (stereo not shown)  5.05%
54. O=C(Cc1ncc(C(F)(F)F)cc1Cl)NCc1ccco1  5.04%
55. CCOC(=O)C1=C(O)C(=O)NC(c2ccccc2)=C(OCC)C1  5.01%
56. Cc1ccc2c(c1)N(CC(=O)NC1CCCc3ccccc31)C(=O)CO2 (stereo not shown)  4.84%
57. CCCCNC(=O)N(O)C1N(/N=C/c2ccco2)C(=S)SC1(C)C (stereo not shown)  4.84%
58. Cc1nc(Nc2ccc(S(N)(=O)=O)cc2)oc1C  4.52%
59. O=C(O)CC(Cc1ccc(Br)cc1)C(=O)Nc1ccccc1 (stereo not shown)  4.46%
60. COc1cc(NC(=O)c2ccc(OC)c([N+](=O)[O-])c2)ccc1NC(=O)c1ccco1  4.26%
61. Cc1ccc2oc(=O)c3cnn(CC(=O)NC4CCN(Cc5ccccc5)CC4)c3c2c1  4.04%
62. O=c1cc(Cc2nnc(SCc3ccccc3)n2-c2ccc(Cl)cc2)[nH]c(=O)[nH]1  3.9%
63. O=C(Nc1cc(Cl)ccc1Cl)c1cc(-c2ccco2)on1  3.74%
64. CCC1Oc2ccccc2N(CC(=O)NCCN2C(C)CCCC2C)C1=O (stereo not shown)  2.97%
65. COC(=O)CCn1nnc(-c2cccs2)n1  2.71%
66. Cc1ccc2c(C)nc(Nc3ncc4c(n3)CCCC4=O)nc2c1  2.3%
67. O=C(NC1=NCCS1)c1ccccc1F  2.08%
68. COCCC(=O)N1CCC(Oc2ccc(C(=O)NCCn3cccn3)cc2)CC1  1.73%
69. Cc1cccc(N2CCN(C(=O)CCCSc3nc4ccccc4[nH]3)CC2)c1C  0.194%
70. O=C(CNC(=O)c1ccccc1F)N/N=C/c1cc(Br)ccc1OCc1ccccc1  -0.264%
71. O=C(N/N=C/C(Br)=C/c1ccccc1)c1cccnc1  -0.267%
72. COCc1nc2ccccc2n1CCCOc1ccccc1  -1.6%
73. COc1ccc(S(=O)(=O)N2CCC(C(=O)NCCc3ccc4c(c3)OCO4)CC2)cc1  -1.99%
74. Cl.Fc1ccc(Nc2nc(NCc3ccco3)c3ccccc3n2)cc1  -2.26%
75. CCCCCCS(=O)Cc1ccccc1 (stereo not shown)  -2.41%
76. O=C(CCCc1nc2ccccc2s1)NCc1ccccc1  -2.48%
77. CCc1ccc(-c2csc3ncn(CC(=O)N4CCOCC4)c(=O)c23)cc1  -3.18%
78. CNC(=S)N1N=C(c2ccc(C)cc2)CC1c1ccc(Cl)cc1 (stereo not shown)  -4.07%
79. CCOC(=O)c1c(-c2ccccc2)nc2c(C)cccn12  -5.63%
80. O=C(c1cc2ncc(Br)cn2n1)N1CCN(C(=O)c2ccco2)CC1  -5.78%
81. CC[C@@H](C)C(NC(=O)OC(C)(C)C)c1cn([C@@H](Cc2ccc(O)cc2)C(=O)N2CCN(C(=O)OC(C)(C)C)CC2)nn1 (stereo partly shown)  -7.25%
82. O=C(NCCC1CCCCN1S(=O)(=O)c1ccccc1)C(=O)NC1CCCC1 (stereo not shown)  -7.8%
83. CC1=CCC(C(=O)O)(C(=O)N/N=C/c2cccs2)C(c2ccc([N+](=O)[O-])cc2)C1 (stereo not shown)  -9.18%
84. CCN1CCN(C(CNS(=O)(=O)c2ccc(Cl)cc2)c2cccnc2)CC1 (stereo not shown)  -10.6%
85. CC(C)CCc1noc(CN(C)CC2CCN(Cc3ccccc3)CC2)n1  -17.5%
86. CCC(CO)[n+]1c(C)cc(/C=C2\Sc3ccccc3N2Cc2ccccc2)cc1C.[Br-] (stereo not shown)  -18.9%
87. CCCC(C(=O)Nc1ccc(C)c(S(=O)(=O)N2CCOCC2)c1)c1ccccc1 (stereo not shown)  -22.6%
88. CC(C)CCNC(=O)C1CC2Cn3c(nc4cc(Cl)c(Cl)cc43)C2N1C (stereo not shown)  -26.1%
